Measurements published in PubChem BioAssay (NCI).
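Five concentrations, 48 hours, 96-well plates. Here, GI50 denotes the concentration required for 50% inhibition of growth. At the TGI there is no net growth.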

System: NCI-H322M lung
Assay: NCI anticancer screen, dose series, 48 h

CCNC(=O)Oc1ccc(/C(=C(/C)c2ccc(Cl)cc2)c2ccc(OCCN3CCCCCC3)cc2)cc1
GI50: 2.28 µM | TGI: 5.75 µM
